# From the antibiotic and cytotoxicity screens of Wong et al. (2023)
# The list shows a part of the results.
# System: HSkMC (human skeletal muscle cells)
# Test: cytotoxicity call (relative viability < 0.9)
# Settings: 10 µM
row,Structure (SMILES),cytotoxicity call
1,C[C@@H]1CN([C@@H](C)CO)C(=O)Cc2cc(NC(=O)c3ccncc3)ccc2O[C@H]1CN(C)Cc1ccc(Oc2ccccc2)cc1,inactive
2,C[C@@H]1CN([C@H](C)CO)C(=O)c2cccc(NC(=O)Nc3ccc(C(F)(F)F)cc3)c2O[C@H]1CN(C)CC1CCCCC1,active
3,COc1ccc(CN(C)C[C@@H]2OCCCC[C@@H](C)Oc3ccc(NC(=O)C4CCCCC4)cc3C(=O)N([C@@H](C)CO)C[C@@H]2C)cc1,inactive
4,C[C@@H]1CN([C@@H](C)CO)S(=O)(=O)c2ccc(C#CCN(C)C)cc2O[C@@H]1CN(C)C(=O)c1ccccc1F,inactive
5,Cc1ccc(NC(=O)CN)c(F)c1,inactive
6,C[C@@H]1CN([C@H](C)CO)C(=O)Cc2cc(NS(=O)(=O)c3cccs3)ccc2O[C@H]1CN(C)Cc1ccc(-c2ccccc2)cc1,inactive
7,Cc1noc(C)c1NC(=O)Nc1ccc2c(c1)C(=O)N([C@H](C)CO)C[C@@H](C)[C@@H](CN(C)Cc1ccncc1)OCCCC[C@@H](C)O2,inactive
8,C[C@H]1CN([C@@H](C)CO)C(=O)c2cc(NS(C)(=O)=O)ccc2O[C@H]1CN(C)S(C)(=O)=O,inactive
9,Cc1ccccc1S(=O)(=O)N1C[C@H](O)COC[C@@H]2O[C@@H](CC(=O)N3CCC(Cc4ccccc4)CC3)CC[C@H]21,inactive
10,C[C@@H]1CN([C@H](C)CO)C(=O)c2cc(NS(=O)(=O)c3cccs3)ccc2O[C@@H](C)CCCCO[C@@H]1CN(C)Cc1ccc2c(c1)OCO2,inactive
11,Nc1ccc(NC(=O)CCN2CCOCC2)cc1,inactive
12,COC(=O)C[C@H]1CC[C@@H]2[C@H](COC[C@@H](O)CN2S(=O)(=O)c2ccccc2C)O1,inactive
13,C[C@@H]1CN([C@@H](C)CO)C(=O)Cc2cc(NC(=O)C3CC3)ccc2O[C@H]1CN(C)S(=O)(=O)c1ccc(F)cc1,inactive

# System: HepG2
# Test: cytotoxicity call (relative viability < 0.9)
# Settings: 10 µM
row,Structure (SMILES),cytotoxicity call
1,CCN(CC)CCNC(=O)c1cc(S(C)(=O)=O)ccc1OC.Cl,inactive
2,C[C@H]1CN([C@@H](C)CO)C(=O)c2cc(NC(=O)Nc3ccc(C(F)(F)F)cc3)ccc2O[C@@H]1CN(C)S(=O)(=O)c1ccc(F)cc1,inactive
3,C[C@H]1CN([C@@H](C)CO)C(=O)Cc2cc(NC(=O)CCCCCC(=O)Nc3ccccc3N)ccc2O[C@H]1CN(C)S(=O)(=O)c1cn(C)cn1,inactive
4,O=C(C[C@H]1CC[C@@H]2[C@H](COC[C@H](O)CN2C(=O)c2ccccc2)O1)N1CCOCC1,inactive
5,COc1ccc(S(=O)(=O)Nc2ccc3c(c2)C(=O)N([C@@H](C)CO)C[C@@H](C)[C@@H](CN(C)Cc2ccc4c(c2)OCO4)OCCCC[C@@H](C)O3)cc1,inactive
6,C[C@@H]1CN([C@@H](C)CO)S(=O)(=O)c2ccc(-c3cccc(C#N)c3)cc2O[C@@H]1CN(C)C(=O)c1cccnc1,inactive
7,C[C@H](CO)N1C[C@H](C)[C@@H](CN(C)Cc2ccc(C(F)(F)F)cc2)Oc2ccc(NC(=O)Nc3ccc(C(F)(F)F)cc3)cc2CC1=O,active
8,COc1ccc(NC(=O)Nc2ccc3c(c2)C(=O)N([C@H](C)CO)C[C@H](C)[C@H](CN(C)C(=O)Cc2ccccc2)OCCCC[C@H](C)O3)cc1,inactive
9,COc1ccc(S(=O)(=O)N(C)C[C@H]2Oc3ccc(NS(=O)(=O)c4cn(C)cn4)cc3C(=O)N([C@@H](C)CO)C[C@@H]2C)cc1,inactive
10,Cc1noc(C)c1NC(=O)Nc1ccc2c(c1)C(=O)N([C@H](C)CO)C[C@H](C)[C@@H](CN(C)Cc1ccccc1)OCCCC[C@H](C)O2,inactive
11,COc1ccc(NC(=O)Nc2ccc3c(c2)C(=O)N([C@@H](C)CO)C[C@@H](C)[C@H](CN(C)C(=O)NC2CCCCC2)OCCCC[C@@H](C)O3)cc1,inactive
12,C[C@H](CO)N1C[C@H](C)[C@H](CN(C)C(=O)Nc2ccc(-c3ccccc3)cc2)OCc2ccccc2-c2ccccc2C1=O,inactive
13,COc1ccc(S(=O)(=O)Nc2cccc3c2O[C@H](CN(C)C(=O)NC(C)C)[C@@H](C)CN([C@@H](C)CO)C3=O)cc1,inactive
14,Fc1ccc(-c2nc3c4ccccc4c4ccccc4c3[nH]2)cc1,active
15,O=C(C[C@@H]1CC[C@@H]2[C@H](COC[C@@H](O)CN2S(=O)(=O)c2cccc(Cl)c2)O1)NCc1ccncn1,inactive
16,CC1(C)S[C@@H]2[C@H](NC(=O)[C@H](N)c3ccccc3)C(=O)N2[C@H]1C(=O)OCOC(=O)[C@@H]1N2C(=O)C[C@H]2S(=O)(=O)C1(C)C,inactive
17,COc1ccc(S(=O)(=O)Nc2ccc3c(c2)C(=O)N([C@@H](C)CO)C[C@@H](C)[C@@H](CN(C)C(=O)Nc2ccc4c(c2)OCO4)OCCCC[C@H](C)O3)cc1,inactive
18,Cc1noc(C)c1S(=O)(=O)N(C)C[C@H]1OCCCC[C@@H](C)Oc2ccc(NC(=O)Nc3ccc(C(F)(F)F)cc3)cc2C(=O)N([C@@H](C)CO)C[C@H]1C,inactive
19,C[C@H](CO)N1C[C@H](C)[C@H](CN(C)Cc2ccncc2)Oc2ccc(NC(=O)Nc3cccc4ccccc34)cc2C1=O,inactive
20,CC1(C)C[C@H](c2nc(-c3ccccc3)cs2)CCS1,active

row,Structure (SMILES),cytotoxicity call
1,CCCCCCCCCCCCCCCC(=O)O[C@@H]1[C@@H](O)[C@@H](O)[C@@H]([C@H](NC(=O)[C@@H]2C[C@@H](CCC)CN2C)[C@H](C)Cl)O[C@@H]1SC,inactive
2,C[C@@H]1NC(=O)[C@@]23C(=O)N[C@@H](Cc4ccccc4)[C@@H]2[C@H](C)[C@@]2(C)O[C@H]2[C@H]3/C=C/C/C=C\CNC(=O)[C@@H]2CCCN2C1=O,inactive
3,C[C@@H]1CCCCO[C@@H](CN(C)CC2CC2)[C@H](C)CN([C@@H](C)CO)C(=O)c2cc(NS(=O)(=O)c3ccc(Cl)cc3)ccc2O1,inactive
4,C[C@H](O)C#Cc1ccc2c(c1)O[C@H](CN(C)C(=O)Nc1ccccc1)[C@@H](C)CN([C@H](C)CO)S2(=O)=O,inactive
5,CO[C@@H]1CN(C)C(=O)c2ccc(NC(=O)Nc3ccc(Cl)cc3)cc2OC[C@@H](C)N(C(=O)Nc2c(C)noc2C)C[C@@H]1C,inactive
6,C[C@@H]1CN([C@@H](C)CO)C(=O)c2cc(NC(=O)Nc3ccc(F)cc3)ccc2O[C@@H](C)CCCCO[C@H]1CN(C)Cc1ccc2c(c1)OCO2,active
7,CN1C(=O)c2cc(NS(=O)(=O)c3cccc(F)c3)ccc2OC[C@H]2O[C@H](CC(=O)NCCN3CCCCC3)CC[C@@H]21,inactive
8,C[C@@H]1CN([C@@H](C)CO)C(=O)Cc2cc(NC(=O)c3ccncc3)ccc2O[C@H]1CN(C)Cc1ccc(Oc2ccccc2)cc1,active
9,C[C@@H]1CN([C@H](C)CO)C(=O)c2cccc(NC(=O)Nc3ccc(C(F)(F)F)cc3)c2O[C@H]1CN(C)CC1CCCCC1,active
10,COc1ccc(CN(C)C[C@@H]2OCCCC[C@@H](C)Oc3ccc(NC(=O)C4CCCCC4)cc3C(=O)N([C@@H](C)CO)C[C@@H]2C)cc1,inactive
11,C[C@@H]1CN([C@@H](C)CO)S(=O)(=O)c2ccc(C#CCN(C)C)cc2O[C@@H]1CN(C)C(=O)c1ccccc1F,inactive
12,Cc1ccc(NC(=O)CN)c(F)c1,inactive
13,C[C@@H]1CN([C@H](C)CO)C(=O)Cc2cc(NS(=O)(=O)c3cccs3)ccc2O[C@H]1CN(C)Cc1ccc(-c2ccccc2)cc1,inactive
14,Cc1noc(C)c1NC(=O)Nc1ccc2c(c1)C(=O)N([C@H](C)CO)C[C@@H](C)[C@@H](CN(C)Cc1ccncc1)OCCCC[C@@H](C)O2,inactive
15,C[C@H]1CN([C@@H](C)CO)C(=O)c2cc(NS(C)(=O)=O)ccc2O[C@H]1CN(C)S(C)(=O)=O,inactive
16,Cc1ccccc1S(=O)(=O)N1C[C@H](O)COC[C@@H]2O[C@@H](CC(=O)N3CCC(Cc4ccccc4)CC3)CC[C@H]21,inactive
17,C[C@@H]1CN([C@H](C)CO)C(=O)c2cc(NS(=O)(=O)c3cccs3)ccc2O[C@@H](C)CCCCO[C@@H]1CN(C)Cc1ccc2c(c1)OCO2,inactive
18,Nc1ccc(NC(=O)CCN2CCOCC2)cc1,inactive
19,COC(=O)C[C@H]1CC[C@@H]2[C@H](COC[C@@H](O)CN2S(=O)(=O)c2ccccc2C)O1,inactive
20,C[C@@H]1CN([C@@H](C)CO)C(=O)Cc2cc(NC(=O)C3CC3)ccc2O[C@H]1CN(C)S(=O)(=O)c1ccc(F)cc1,inactive
